# Reference: ChEMBL document CHEMBL5606458, “ASAP - ZIKV NS2B-NS3 protease fluorescence single point” (2024)
# In all, about 2,700 compounds went through this assay and about 160 (5.9%) showed an effect of 50% or more. The list shows a part of the results.
# Biological target: Nonstructural protein 3 (Zika virus) (UniProt A0A024AXB9)
# [1] = PRVABC59, Concentration 15.0 uM, Number of replicates 1.0
# [2] = PRVABC59, Concentration 50.0 uM, Number of replicates 1.0
# [3] = PRVABC59, Concentration 10.0 uM, Number of replicates 1.0
# Chain of UniProt A0A024AXB9 (A0A024AXB9 as listed by the source): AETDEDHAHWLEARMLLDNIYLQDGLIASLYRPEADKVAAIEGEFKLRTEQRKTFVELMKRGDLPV
smiles,measurement,setting,value
O=C(NC(c1ccccc1)(c1ccccc1)c1ccccc1)c1cc(Cl)ccc1NS(=O)(=O)c1ccc(Oc2ccccc2Cl)cc1,inhibition,[1],27.1%
COc1ccccc1CN(C(=O)c1cc(Cl)ccc1NS(=O)(=O)c1ccc(Oc2ccccc2Cl)cc1)C1CC1,inhibition,[1],24.2%
O=Cc1ccc(N2CCC(C(=O)N3CCc4ccc([N+](=O)[O-])cc4C3)CC2)cc1,inhibition,[2],29%
O=C(N[C@@H](Cc1ccccc1)c1ccccc1)c1cc(Cl)ccc1NS(=O)(=O)c1ccc(Oc2ccccc2Cl)cc1,inhibition,[1],28.3%
CCC(CC)N1CCN(C(=O)c2cc(Cl)ccc2NS(=O)(=O)c2ccc(Oc3ccccc3Cl)cc2)CC1,inhibition,[1],19.6%
COc1ccc(NC(=O)c2cc(Cl)ccc2NS(=O)(=O)c2ccc(Oc3ccccc3Cl)cc2)c([N+](=O)[O-])c1,inhibition,[1],23.8%
O=Cc1ccc(N2CCC(C(=O)Nc3ccc(I)cc3F)CC2)cc1,inhibition,[2],23.8%
Cc1cnccc1NC(=O)c1ccc(Cn2cccn2)o1,inhibition,"PRVABC59, Concentration 49.5 uM, Number of replicates 2.0, Standard deviation 2.869943793578149 %",-3.37%
same,inhibition,"PRVABC59, Concentration 99.01 uM, Number of replicates 2.0, Standard deviation 4.685622862463218 %",-2.42%
same,inhibition,"PRVABC59, Concentration 198.0 uM, Number of replicates 2.0, Standard deviation 2.8508744783111757 %",-2.11%
Cc1cc(I)ccc1NC(=O)C1CCN(c2ccc(C=O)cc2)CC1,inhibition,[2],13.7%
Cn1cncc1CN1CCC(c2c[nH]c3cccnc23)CC1,inhibition,"PRVABC59, Concentration 49.5 uM, Number of replicates 2.0, Standard deviation 0.36428498974851165 %",-6.38%
same,inhibition,"PRVABC59, Concentration 99.01 uM, Number of replicates 2.0, Standard deviation 0.23301104362860023 %",-5.77%
same,inhibition,"PRVABC59, Concentration 198.0 uM, Number of replicates 2.0, Standard deviation 0.16409217976879822 %",-5.19%
O=C(c1cc(Cl)ccc1NS(=O)(=O)c1ccc(Oc2ccccc2Cl)cc1)N1CCC(=C2c3ccc(Cl)cc3CCc3cccnc32)CC1,inhibition,[1],6.18%
CC(C)(C)N(Cc1ccc(Br)cc1)C(=O)C1CCN(c2ccc(C=O)cc2)CC1,inhibition,[2],28.5%
Cc1nn(CC(=O)N[C@H]2CCS(=O)(=O)C2)cc1C1CCNCC1,inhibition,"PRVABC59, Concentration 49.5 uM, Number of replicates 2.0, Standard deviation 5.344569156352791 %",-4.22%
same,inhibition,"PRVABC59, Concentration 99.01 uM, Number of replicates 2.0, Standard deviation 4.944451379615651 %",-1.67%
same,inhibition,"PRVABC59, Concentration 198.0 uM, Number of replicates 2.0, Standard deviation 3.753762379719695 %",2.58%
CN(C)c1ccccc1CNC(=O)C1CCN(c2ccc(C=O)cc2)CC1,inhibition,[3],25.6%
Cc1cc(CO)c2cccc(C[C@H](NC(=O)Cc3c[nH]c4ccccc34)C(=O)O)c2n1,inhibition,"PRVABC59, Concentration 49.95 uM, Number of replicates 2.0, Standard deviation 0.6925039676538037 %",-0.44%
same,inhibition,"PRVABC59, Concentration 99.9 uM, Number of replicates 2.0, Standard deviation 0.7426851276507157 %",7.22%
O=Cc1ccc(N2CCC(C(=O)N3CCN(C(=O)[C@H]4COc5ccccc5O4)CC3)CC2)cc1,inhibition,[2],22.2%
CNC(=O)c1ccc2n1CCN(S(=O)(=O)c1cnn(CC3CC3)c1)[C@@H]2C,inhibition,"PRVABC59, Concentration 49.5 uM, Number of replicates 2.0, Standard deviation 1.040561182661946 %",-1.94%
same,inhibition,"PRVABC59, Concentration 99.01 uM, Number of replicates 2.0, Standard deviation 0.20003029173185544 %",-2.17%
same,inhibition,"PRVABC59, Concentration 198.0 uM, Number of replicates 2.0, Standard deviation 0.2141737625677472 %",-2.84%
COc1ccc(NC(C)=O)cc1NC(=O)C1CCN(c2ccc(C=O)cc2)CC1,inhibition,[2],20%
Cc1cc(CO)c2cccc(Cc3ccccc3NC(=O)c3nc(-c4ccccc4)oc3C(F)(F)F)c2n1,inhibition,"PRVABC59, Concentration 49.95 uM, Number of replicates 2.0, Standard deviation 1.8373680900098652 %",5.06%
same,inhibition,"PRVABC59, Concentration 99.9 uM, Number of replicates 2.0, Standard deviation 1.2469667752869535 %",9.26%
O=C(Nc1ccc(F)cc1Br)c1cc(Cl)ccc1NS(=O)(=O)c1ccc(Oc2ccccc2Cl)cc1,inhibition,[1],25%
CC[C@H](C)N(Cc1ccccc1)C(=O)C1CCN(c2ccc(C=O)cc2)CC1,inhibition,[3],26.6%
Cn1cc(NC(=O)c2ccccc2C(F)(F)F)c(-c2ccccc2CO)n1,inhibition,"PRVABC59, Concentration 49.5 uM, Number of replicates 2.0, Standard deviation 1.1938974234704913 %",-0.442%
same,inhibition,"PRVABC59, Concentration 99.01 uM, Number of replicates 2.0, Standard deviation 1.523480341882225 %",1.31%
same,inhibition,"PRVABC59, Concentration 198.0 uM, Number of replicates 2.0, Standard deviation 2.1372444344514228 %",2.85%
CCN(CC)CCN(CCN(CC)CC)C(=O)c1cc(Cl)ccc1NS(=O)(=O)c1ccc(Oc2ccccc2Cl)cc1,inhibition,[1],12.8%
CN(Cc1ccc(N2CCOCC2)cc1)C(=O)c1cc(Cl)ccc1NS(=O)(=O)c1ccc(Oc2ccccc2Cl)cc1,inhibition,[1],9.72%
CN1CCN(C[C@H]2CCCN(C(=O)c3cc(Cl)ccc3NS(=O)(=O)c3ccc(Oc4ccccc4Cl)cc3)C2)CC1,inhibition,[1],1.15%
c1cc(CN2CCC[C@H](c3c[nH]c4ccccc34)C2)c2[nH]ccc2c1,inhibition,"PRVABC59, Concentration 50.0 uM, Number of replicates 2.0, Standard deviation 4.969152467416127 %",2.39%
same,inhibition,"PRVABC59, Concentration 100.0 uM, Number of replicates 2.0, Standard deviation 4.272227774773933 %",5.68%
same,inhibition,"PRVABC59, Concentration 200.0 uM, Number of replicates 2.0, Standard deviation 6.212735946585718 %",0.564%
O=Cc1ccc(N2CCC(C(=O)Nc3cccc(N4CCOCC4)c3)CC2)cc1,inhibition,[2],9.23%
O=C(NCc1coc(-c2ccccc2)n1)c1cc(Cl)ccc1NS(=O)(=O)c1ccc(Oc2ccccc2Cl)cc1,inhibition,[1],45.4%
O=Cc1ccc(N2CCC(C(=O)Nc3c(Cl)cccc3[N+](=O)[O-])CC2)cc1,inhibition,[2],21.7%
c1ccc2c([C@H]3CCN(Cc4cc(-c5ccncc5)[nH]n4)C3)c[nH]c2c1,inhibition,"PRVABC59, Concentration 49.5 uM, Number of replicates 2.0, Standard deviation 2.8555238815628745 %",1.13%
same,inhibition,"PRVABC59, Concentration 99.01 uM, Number of replicates 2.0, Standard deviation 3.4240925808481126 %",6.82%
same,inhibition,"PRVABC59, Concentration 198.0 uM, Number of replicates 2.0, Standard deviation 2.908364523505892 %",15.2%
CN(C)CC[C@H]1CCCCN1C(=O)C1CCN(c2ccc(C=O)cc2)CC1,inhibition,[2],24.8%
Cc1cc(CO)c2cccc(Cc3ccccc3NC(=O)COc3cccc(CN)c3)c2n1,inhibition,"PRVABC59, Concentration 49.95 uM, Number of replicates 2.0, Standard deviation 1.5421673483547123 %",8.84%
same,inhibition,"PRVABC59, Concentration 99.9 uM, Number of replicates 2.0, Standard deviation 1.3284012301057624 %",21.3%
O=C(NCC1(c2ccccc2)CCCC1)c1cc(Cl)ccc1NS(=O)(=O)c1ccc(Oc2ccccc2Cl)cc1,inhibition,[1],30.9%
COc1cncc(-c2ccccc2C(=O)Nc2cnn(C)c2)c1,inhibition,"PRVABC59, Concentration 49.5 uM, Number of replicates 2.0, Standard deviation 4.9130935342676665 %",-2.29%
same,inhibition,"PRVABC59, Concentration 99.01 uM, Number of replicates 2.0, Standard deviation 3.43930152401436 %",0.018%
same,inhibition,"PRVABC59, Concentration 198.0 uM, Number of replicates 2.0, Standard deviation 1.7993335938018762 %",0.6%
O=Cc1ccc(N2CCC(C(=O)NCc3ccc4c(c3)OCCO4)CC2)cc1,inhibition,[3],17%
CCN(C(=O)C1CCN(c2ccc(C=O)cc2)CC1)C1C2CC3CC(C2)CC1C3 (stereo not given),inhibition,[2],26.7%
CCCc1nn(C)c(C(N)=O)c1NC(=O)c1cc(Cl)ccc1NS(=O)(=O)c1ccc(Oc2ccccc2Cl)cc1,inhibition,[1],20.9%
CC(C)c1cccc(C(C)C)c1NC(=O)c1cc(Cl)ccc1NS(=O)(=O)c1ccc(Oc2ccccc2Cl)cc1,inhibition,[1],29.3%
CN(C[C@H](O)[C@@H](O)[C@H](O)[C@H](O)CO)C(=O)c1cc(Cl)ccc1NS(=O)(=O)c1ccc(Oc2ccccc2Cl)cc1,inhibition,[1],3.12%
O=Cc1ccc(N2CCC(C(=O)Nc3ccc4c(c3)OC(F)(F)O4)CC2)cc1,inhibition,[2],19.3%
C[C@H](NC(=O)C1CCN(c2ccc(C=O)cc2)CC1)c1ccc(S(C)(=O)=O)cc1,inhibition,[3],23.1%
